# Where “and” joins values, the source holds several entries; their conditions need not be identical. Identical values can stand only once. Hit rate of the full screen: of about 420,000 compounds, about 64,000 (15%) were called active. The inconclusive results got no clear call from the source; some entries with a clear call stand among them for comparison. Calls come from the whole dose curve; as a rule, active = well fitted inhibition curve with a large enough effect; inconclusive = small, poorly fitted or top-dose-only effect; inactive = flat fitted curve, though single readings scatter. No potency is given beside an inconclusive call; the fits are too rough.
# Experiment: qHTS for Inhibitors of human tyrosyl-DNA phosphodiesterase 1 (TDP1): qHTS in cells in absence of CPT; note: nearly all actives have a fitted effect of over 55% in size
# Conditions: DT40 Tdp1-/- hTDP1 cells, no CPT, ATP luminescence, 48 h; activity change, negative = growth inhibition: at 46.2 µM (top of the series) unless noted
# How it was run: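 Growth of hTDP1-complemented DT40 Tdp1-knockout cells is measured by ATP luminescence after at least 48 hr compound exposure at 37 °C, with DMSO substituting for the 20 nM CPT used in the parallel screen.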
# % is set by controls: 0 for no effect and ±100 for the full control effect; potency is the fitted concentration of half-maximal effect; tags give direction and shape of the fitted curve.
Compound,Potency,"activity change, negative = growth inhibition"
Cc1ccc(COc2cccc(/C=N/NC(=O)c3nnn(-c4nonc4N)c3C)c2)cc1,"inconclusive [inhibitor, partial curve, poor fit]",
O=c1[nH]c(=S)[nH]c2scc(-c3ccc(Br)cc3)c12,,inactive: 7.56%
CCC1CN(C(=O)Nc2cccc(C)c2)c2cc(C)ccc2O1 (configuration not stated),active: 20.6 µM,
COC(=O)C1C(=O)NCC1c1ccc(OC)cc1 (configuration not stated),,inactive: -1.94%
CC(C)CCN(C(=O)CNC(=O)c1cccs1)C(C(=O)NC1CCCCC1)c1cccnc1 (configuration not stated),,inactive: -16.4%
COCCN(C(=O)COC(=O)COc1ccc2c(c1)CCC2)c1c(N)n(Cc2ccccc2)c(=O)[nH]c1=O,,inactive: -0.961%
CCOC(=O)CCN,,inactive: -11.2%
COc1cc(-c2oc3cc(O)ccc3c(=O)c2O)ccc1O,"inconclusive [inhibitor, single point]",
Cc1nc2ccccc2n1C(C)c1ccccc1 (configuration not stated),"inconclusive [inhibitor, partial curve]",
CCCCNS(=O)(=O)CCNCc1ccc(OC)cc1,"inconclusive [inhibitor, full curve, poor fit]",
O=C(C1=C(O)C(=O)N(c2ncccn2)C1c1ccc(F)cc1)c1ccco1 (configuration not stated),,inactive: 3.28%
COc1ccc(C(CNC(=O)COc2cc(C)cc(C)c2)N2CCCCC2)cc1 (configuration not stated),"inconclusive [inhibitor, single point]",
O=C(CCc1ccccc1)Nc1nc2c(F)cc(F)cc2s1,active: 13 µM,
CCC(NC(=O)c1cc(COc2ccc(Cl)cc2OC)on1)c1ccncc1 (configuration not stated),"inconclusive [inhibitor, single point]",
Cc1cc(C)cc(NC(=O)C(OC(=O)c2cc[n+]([O-])cc2)c2ccccc2)c1 (configuration not stated),,inactive: 9.75%
Cc1ccc(NC(=O)Cn2c(=O)n(CC3CCC(C(=O)NC(C)C)CC3)c(=O)c3sccc32)cc1 (configuration not stated),"inconclusive [inhibitor, single point]",
CN(C(=O)COC(=O)c1cc([N+](=O)[O-])ccc1Cl)c1ccccc1,,inactive: -13.5%
CC(=O)Nc1ccc(S(=O)(=O)NCc2ccc3[nH]c(C)cc3c2)cc1,"inconclusive [inhibitor, partial curve]",
COc1ccc(NC(=O)c2ccccc2N(Cc2ccccc2)S(C)(=O)=O)cc1,"inconclusive [inhibitor, partial curve]",
CCOc1ccc(C2CC(=O)NC(SCC(=O)OC)=C2C#N)cc1 (configuration not stated),"inconclusive [inhibitor, single point]",
CCNC(=O)c1ccc(CSc2nc3ccccc3s2)cc1,"inconclusive [inhibitor, full curve]",
O=C(CN1C(=O)CCC1=O)Nc1cccc(NC(=O)CN2C(=O)CCC2=O)c1,,inactive: 1.73%
COc1cccc(C(=O)Nc2nc3ccccc3[nH]2)c1,"inconclusive [inhibitor, partial curve]",
C/C(=N\OCC(=O)Nn1c(=O)[nH]c2ccccc2c1=O)c1ccccc1,"inconclusive [inhibitor, single point]",

Compound,Potency,"activity change, negative = growth inhibition"
CC(=O)NCCC(=O)Nc1cc(S(=O)(=O)N2CCOCC2)ccc1N1CCOCC1,,inactive: 4.67%
O=C(Nc1ccc2cccnc2c1)c1ccc(Br)cc1,"inconclusive [inhibitor, single point]",
Cc1cnc(CNc2ccnc(-c3ccoc3)n2)cn1,,inactive: 11.8%
CCOC(=O)C1CCN(C(=O)c2ccc3c(c2)NC(=O)/C(=C/c2ccccc2)S3)CC1,"inconclusive [inhibitor, partial curve]",
CCCc1nc2c(c(=O)c3ccccc3n2C)c(=O)n1-c1cc(C)cc(C)c1,"inconclusive [inhibitor, partial curve, poor fit]",
Cc1nc2ncccn2c1-c1csc(Nc2ccc(O)cc2)n1,active: 5.17 µM,
CCNC(=O)c1ccccc1NC(=O)c1cccc(S(=O)(=O)N2CCC(C)CC2)c1,active: 14.6 µM,
CCC1(c2ccccc2)NC(=O)N(CC(=O)Nc2ccc3c(C)cc(=O)oc3c2)C1=O (configuration not stated),"inconclusive [inhibitor, single point]",
C=CCNC(=O)c1c(CSc2ccc(F)cc2)noc1C(=O)NCCC,,inactive: -9.2%
COCCNC(=O)Cn1cnc2c(cnn2-c2ccc(C)cc2)c1=O,,inactive: 3.1%
CCN(c1ccccc1)S(=O)(=O)c1ccc(NC(=O)c2cc(=O)c3ccc(C)c(C)c3o2)cc1,active: 11.6 µM,
COc1ccc(Cc2c(C(C)(C)C)nc3ccc(Br)cn23)c(C)c1,"inconclusive [inhibitor, single point]",
Cc1ccc(Cn2c(SC(C)C(N)=O)nc3ccccc3c2=O)cc1 (configuration not stated),"inconclusive [inhibitor, single point]",
COCC(C)n1c(C)cc(C(=O)COC(=O)c2nn(C)c(=O)c3ccccc23)c1C (configuration not stated),"inconclusive [inhibitor, single point]",
Cc1ccc(S(=O)(=O)N2CCCC(C(=O)NCCc3ccc(Cl)cc3)C2)cc1 (configuration not stated),"inconclusive [inhibitor, single point]",
O=C(Cc1cccs1)N1CCN(c2ccc(F)cc2)CC1,"inconclusive [inhibitor, single point]",
Cn1c(Cn2c(=O)sc3ccccc32)nnc1SCc1ccccc1F,"inconclusive [inhibitor, single point]",
CN(C)CCNC(=O)c1cccc(-c2cnc3c(NC=O)cc(-c4ccc(F)cc4)cn23)c1,active: 5.17 µM,
CN(C)CCCN(CCCNC(=O)/C=N/O)Cc1ccccc1,,inactive: -4.02%
COc1ccccc1NC(=O)c1ccccc1NS(C)(=O)=O,active: 14.6 µM,
Nc1nc(Cl)nc2c1ncn2[C@H]1C[C@H](O)[C@@H](CO)O1,active: 9.4 nM and active: 9.2 nM and active: 206 nM,
Cc1oc2cc(O)ccc2c(=O)c1-c1cnn(-c2ccccc2)c1,"inconclusive [inhibitor, single point]",
COCCn1c(=O)c(CCc2ccccc2)nc2cnc(N(C)C)nc21,,inactive: -2.49%
Cc1ccc(NC(=O)Cn2cnc3ccccc32)cc1C,"inconclusive [inhibitor, single point]",

Compound,Potency,"activity change, negative = growth inhibition"
CC(Oc1ccc(F)cc1)C(=O)Nc1cc(C(F)(F)F)ccc1-n1cncn1 (configuration not stated),,inconclusive: -31.9% [inhibitor]
Cc1ccc2c(CC(=O)Nc3c(C(=O)c4ccc(F)cc4)oc4ccccc34)coc2c1,,inactive: -19.7%
COC(=O)/C=C1/SC(=NC(=O)c2ccc(OC)cc2)NC1=O,"inconclusive [inhibitor, single point]",
O=C(c1[nH]c(C(F)(F)F)nc1-c1ccccc1)N1CCN(c2ccc(C(F)(F)F)cn2)CC1,"inconclusive [inhibitor, single point]",
CC1CCCCC1n1c(=S)[nH]c2ccccc2c1=O (configuration not stated),"inconclusive [inhibitor, single point]",
COc1ccc(C(=O)C2CCCN(C3Cc4ccccc4C3)C2)c(OC)c1 (configuration not stated),active: 10.3 µM,
COc1ccc(N2CCN(C(=O)c3nn(C)c4c3CS(=O)(=O)c3ccccc3-4)CC2)cc1,"inconclusive [inhibitor, single point]",
COc1cc(-c2cc(-c3nnco3)c3ccccc3n2)cc(OC)c1OC,active: 7.31 µM,
CCOc1cc(C(=O)NC2CC(C)(C)NC(C)(C)C2)cc(OCC)c1OCC,,inactive: 4.21%
CCc1ccc(NC(=O)CCc2nnc3ccc(N4CCC5(CC4)OCCO5)nn23)cc1,,inactive: 3.34%
O=C(NCCc1c[nH]c2ccccc12)c1ccc(Cl)cc1,"inconclusive [inhibitor, single point]",
Cn1cc(C(=O)[C@@H]2CCc3nc[nH]c3C2)c2ccccc21,,inactive: -19.1%
COc1ccc(C(=O)c2ccccc2)c(OCC(=O)NC2CC2)c1,"inconclusive [inhibitor, single point]",
CC(C)C[C@H]1CNC(=O)C(=O)N1CC1CCN(CC2CCC(C(C)(C)C)CC2)CC1 (some centres not stated),"inconclusive [inhibitor, single point]",
S=C(NN=C1CCN(Cc2ccccc2)CC1)NC1CCCCC1,"inconclusive [inhibitor, single point]",
CC(NC(=O)C1CCN(C(=O)N2CCOc3ccc(Cl)cc32)CC1)c1ccccc1 (configuration not stated),"inconclusive [inhibitor, single point]",
CCC(=O)OCc1cnc(C)c2oc(=O)c(C(=O)Nc3ccc(CC)cc3)cc12,"inconclusive [inhibitor, partial curve]",
O=C(CCSCc1ccc(Cl)cc1)N1CCN(c2ccccc2F)CC1,,inactive: -5.44%
O=C(NCCC1=CCCCC1)C1CCN(C(=O)c2ccc(Br)cc2)CC1,"inconclusive [inhibitor, single point]",
Cc1snc(SCC(=O)c2ccc([N+](=O)[O-])cc2)c1C#N,"inconclusive [inhibitor, single point]",
O=C(CCCC1=NS(=O)(=O)c2ccccc2N1)N1CCN(c2ccccc2)CC1,"inconclusive [inhibitor, single point]",
O=C(COc1ccc(-c2ccccc2)cc1)N/N=C/c1ccccc1Br,,inconclusive: -33.7% [inhibitor]
COc1cccc(NC(=O)C2(C)CCN2C(C)C)c1OC (configuration not stated),"inconclusive [inhibitor, single point]",
Cc1ccc(C2CC(c3ccccc3OC(F)F)Nc3ncnn32)cc1 (configuration not stated),"inconclusive [inhibitor, single point]",

# Source: PubChem BioAssay AID686978 (National Center for Advancing Translational Sciences (NCATS), 2013)
